# Reference: the supplement of paper PMC7826260
# The other results are listed elsewhere or left out. The data describe in vitro nicking of single-stranded DNA by Rep domains at 3 µM enzyme and 37 °C for 1 h; the strands have 90 letters, of which the middle is given. Uncut reads are compared with the no-enzyme pool on a log2 scale; more negative means more cut, near 0 not cut, and no call is made. Because reads are shares of a total, they shift together; where an enzyme cuts many sequences, the uncut ones exceed 0.
# Tests used:
# Assay in all cases: uncleaved DNA left, log2 of reads against the no-enzyme library (log2 ratio); higher = less cleavage (more negative = more Rep cleavage of the k-mer); sequences stand for … in CTCGTCCG…ACCGGAGA
# [1] = test system: T1, Rep nickase domain of Muscovy duck circovirus
# T1 sequence (residues 1-111 of Rep, tag left off): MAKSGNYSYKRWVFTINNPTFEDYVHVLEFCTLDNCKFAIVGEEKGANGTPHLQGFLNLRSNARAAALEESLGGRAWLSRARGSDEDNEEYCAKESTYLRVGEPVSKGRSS
# Experimental: (§1)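 A pool of 90-nt single-stranded DNAs with seven random bases just before the constant AC of the nick site (name = the seven bases) was cut by 3 µM recombinant His6-SUMO-tagged Rep nickase domain (300 nM DNA, 50 mM HEPES pH 8.0, 50 mM NaCl, 1 mM MnCl2, 1 h, 37 °C, three replicates). Uncut DNA was amplified and sequenced.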
# [2] = test system: T2, Rep nickase domain of banana bunchy top virus
# T2 sequence (residues 1-94 of Rep, tag left off): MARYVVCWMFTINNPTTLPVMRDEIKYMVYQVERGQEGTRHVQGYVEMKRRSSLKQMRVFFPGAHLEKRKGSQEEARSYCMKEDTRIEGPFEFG
# Experimental: as §1
# [3] = test system: T3, Rep nickase domain of cabbage leaf curl virus
# T3 sequence (residues 1-116 of Rep, tag left off): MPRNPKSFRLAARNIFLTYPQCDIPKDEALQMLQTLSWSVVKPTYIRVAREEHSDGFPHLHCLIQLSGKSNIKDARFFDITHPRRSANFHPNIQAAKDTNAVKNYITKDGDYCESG
# Experimental: as §1
# [4] = test system: T4, Rep nickase domain of chickpea chlorotic dwarf virus
# T4 sequence (residues 1-124 of Rep, tag left off): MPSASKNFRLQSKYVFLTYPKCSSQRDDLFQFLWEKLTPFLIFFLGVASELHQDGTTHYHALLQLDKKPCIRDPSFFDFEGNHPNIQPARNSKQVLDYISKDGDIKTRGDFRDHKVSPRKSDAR
# Experimental: as §1
# [5] = test system: T5, Rep nickase domain of faba bean necrotic yellows virus
# T5 sequence (residues 1-98 of Rep, tag left off): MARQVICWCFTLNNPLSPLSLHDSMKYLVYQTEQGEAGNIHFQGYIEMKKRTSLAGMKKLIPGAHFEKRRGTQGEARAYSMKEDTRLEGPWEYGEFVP
# Experimental: as §1
# [6] = test system: T6, Rep nickase domain of maize striate mosaic virus
# T6 sequence (residues 1-117 of Rep, tag left off): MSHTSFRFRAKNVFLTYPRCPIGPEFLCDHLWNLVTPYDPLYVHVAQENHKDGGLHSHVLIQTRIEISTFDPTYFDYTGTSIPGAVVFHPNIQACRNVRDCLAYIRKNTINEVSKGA
# Experimental: as §1
# [7] = test system: T7, Rep nickase domain of porcine circovirus 2
# T7 sequence (residues 2-116 of Rep, tag left off): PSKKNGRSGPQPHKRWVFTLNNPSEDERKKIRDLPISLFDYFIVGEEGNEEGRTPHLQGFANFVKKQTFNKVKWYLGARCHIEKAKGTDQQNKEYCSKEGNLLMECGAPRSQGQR
# Experimental: as §1
# [8] = test system: T8, Rep nickase domain of tomato golden mosaic virus
# T8 sequence (residues 1-124 of Rep, tag left off): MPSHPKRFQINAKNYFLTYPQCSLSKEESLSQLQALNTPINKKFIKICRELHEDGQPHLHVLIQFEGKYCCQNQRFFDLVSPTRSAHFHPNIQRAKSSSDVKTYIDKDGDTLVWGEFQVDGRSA
# Experimental: as §1
# [9] = test system: T9, Rep nickase domain of tomato yellow leaf curl virus
# T9 sequence (residues 1-136 of Rep, tag left off): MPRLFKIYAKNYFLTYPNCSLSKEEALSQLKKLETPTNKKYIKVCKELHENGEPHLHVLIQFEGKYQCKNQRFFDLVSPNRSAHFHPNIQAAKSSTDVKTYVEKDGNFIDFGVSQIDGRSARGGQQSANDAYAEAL
# Experimental: as §1
# [10] = test system: T10, Rep nickase domain of wheat dwarf virus
# T10 sequence (residues 1-137 of Rep, tag left off): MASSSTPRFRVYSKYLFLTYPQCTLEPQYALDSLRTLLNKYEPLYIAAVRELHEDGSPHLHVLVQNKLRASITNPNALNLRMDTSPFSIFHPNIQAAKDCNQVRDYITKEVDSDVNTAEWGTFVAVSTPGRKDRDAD
# Experimental: as §1
Sequence,uncleaved DNA left (log2) [1],uncleaved DNA left (log2) [2],uncleaved DNA left (log2) [3],uncleaved DNA left (log2) [4],uncleaved DNA left (log2) [5],uncleaved DNA left (log2) [6],uncleaved DNA left (log2) [7],uncleaved DNA left (log2) [8],uncleaved DNA left (log2) [9],uncleaved DNA left (log2) [10]
GCTATTA,-0.104,-0.0188,-0.0168,-0.0622,-0.0829,0.286,-0.103,0.0188,0.0232,-0.0497
GTTCCGT,0.0451,0.0782,0.302,0.751,0.0476,1.08,0.138,0.0417,0.141,0.169
TGGACAC,-0.0119,0.0886,0.822,2.04,-0.0134,2.28,0.239,-0.0271,0.0471,0.0742
GGGAGCG,-0.0727,-0.0276,-0.296,0.179,0.0452,-0.18,0.143,-0.0204,-0.0416,-0.0349
AAATTTC,-0.782,-0.0285,-3.21,-2.98,0.0588,-1.92,-1.22,-1.11,-0.0822,-1.29
AACTCCC,-0.297,-0.0584,-0.174,-0.464,-0.0399,-0.0367,-1.73,-0.0812,0.0435,-0.125
TACAAGC,0.0717,0.0126,-0.0346,-0.258,0.0019,-0.844,0.191,0.0295,0.00281,0.0822
GACTTAC,0.0155,-0.0904,0.184,-0.367,-0.071,0.658,-0.23,-0.0271,-0.14,-0.0509
GCCACAT,-0.0479,0.0342,0.62,1.36,-0.0249,1.57,0.178,-0.075,0.0934,0.118
AGCTTGA,-0.0822,0.0306,-0.0131,0.722,-0.0204,0.6,-0.168,0.0038,-0.101,0.032
AGTCAAG,-0.00953,0.0168,-0.671,-0.493,-0.00179,-1.02,0.193,0.081,0.045,-0.108
CATCCCG,0.00162,-0.0352,-0.932,0.0234,-0.0676,-0.876,0.00999,-0.103,-0.0883,-0.228
CCAAGAT,-0.144,-0.113,-0.0282,1.02,-0.0498,1.2,0.0711,-0.148,-0.168,-0.145
GGTCGGA,0.122,-0.0162,0.571,1.2,-0.186,1.64,0.187,0.0871,0.116,0.0561
GTCTTCG,0.0612,0.0926,0.19,0.588,0.122,0.865,0.19,0.218,0.053,0.229
ACTAGCG,0.0784,0.154,0.293,1.67,0.0538,1.66,0.145,-0.042,0.198,-0.0106
GATCATC,0.0367,0.0927,0.369,1.06,-0.0274,1.18,0.141,-0.123,0.181,0.282
CACATAG,0.123,-0.0123,-0.784,0.129,0.00935,-0.697,0.227,0.115,0.142,-0.111
TTCCGCC,-0.0967,-0.0708,-0.021,-0.254,-0.0943,-0.438,0.000133,-0.124,-0.0438,-0.0789
CGGTTTG,-0.0207,-0.00215,-0.0069,0.225,0.0757,0.174,0.0237,-0.00161,0.0101,0.128

Sequence,uncleaved DNA left (log2) [1],uncleaved DNA left (log2) [2],uncleaved DNA left (log2) [3],uncleaved DNA left (log2) [4],uncleaved DNA left (log2) [5],uncleaved DNA left (log2) [6],uncleaved DNA left (log2) [7],uncleaved DNA left (log2) [8],uncleaved DNA left (log2) [9],uncleaved DNA left (log2) [10]
CAACAAA,0.169,0.152,0.00984,-1.33,0.262,-0.448,0.0443,0.257,0.122,0.0777
CTGATGC,0.00233,-0.0227,-0.48,-0.58,0.00903,-0.942,0.17,-0.0587,-0.00445,-0.136
TCCTCAC,-0.136,-0.0528,-0.00865,-0.47,0.043,-0.423,0.0249,-0.0507,-0.108,-0.154
AGGACAT,-0.0322,0.0376,0.876,2.24,-0.0666,2.33,0.2,-0.0322,-0.053,0.157
CACGGTC,-0.126,-0.194,-0.0541,0.0582,-0.0765,-0.44,-0.028,-0.0123,-0.0912,-0.148
CTTGATA,0.00657,-0.0716,0.0232,-1.17,0.148,-0.488,0.0438,0.154,0.0349,0.129
GTTCACG,-0.0257,0.0467,-0.477,-0.585,0.0332,-0.702,0.149,0.0144,-0.069,0.0106
GAGGATT,0.164,0.269,0.712,1.47,0.145,2.06,-0.712,0.186,0.189,0.289
CCCGGCA,-0.0721,0.00563,-0.119,-0.355,0.0349,-0.781,-0.0922,-0.0195,-0.0472,-0.111
ACGGCTT,-0.057,-0.0509,-0.281,-0.988,-0.0706,-0.127,0.0849,0.0526,-0.0973,-0.0699
TGGATTG,0.0855,0.0501,0.0243,0.503,0.0772,0.467,0.168,0.0176,0.00717,0.0612
CTGTTTA,-0.0471,-0.158,-0.163,-1.26,-0.0491,-0.457,-0.383,-0.091,-0.155,-0.121
AGGACTA,0.0638,0.168,0.523,1.49,-0.109,2.04,0.0926,0.11,-0.0594,0.151
GGGTTGC,0.0236,-0.0119,0.596,1.45,0.0634,1.51,0.221,0.0685,0.05,0.0172
CAGGAGC,-0.109,-0.102,0.168,0.843,-0.00936,0.174,0.185,-0.00746,-0.044,-0.128
GTTAGGG,0.0101,-0.00557,0.149,0.584,-0.0821,0.114,0.048,0.12,-0.0453,-0.071
GTAATAA,-0.0452,0.0268,0.241,0.79,-0.0375,1.66,0.00118,-0.0346,-0.00913,-0.0166
CCTCCTG,-0.128,-0.0699,-0.223,-0.13,-0.152,0.116,-0.0523,-0.0148,-0.194,-0.0814
TCTCTGT,0.0392,-0.198,0.0705,-0.447,-0.0978,-0.321,-0.15,-0.0277,-0.0212,-0.0906
ACCTCAC,-0.101,-0.043,-0.0506,-0.464,-0.000564,-0.402,-0.0536,0.0401,-0.131,0.0674

Sequence,uncleaved DNA left (log2) [1],uncleaved DNA left (log2) [2],uncleaved DNA left (log2) [3],uncleaved DNA left (log2) [4],uncleaved DNA left (log2) [5],uncleaved DNA left (log2) [6],uncleaved DNA left (log2) [7],uncleaved DNA left (log2) [8],uncleaved DNA left (log2) [9],uncleaved DNA left (log2) [10]
GGATATT,-0.527,0.0317,0.846,1.82,0.0871,2.16,-1.81,0.0267,0.126,0.167
TTCTTAC,-1.23,-0.175,-0.0552,-2.11,-0.0977,-0.304,-0.997,-0.048,-0.124,-0.202
TCGTACT,-3.82,-1.01,-1.4,-2.72,-2.66,-0.246,-3.98,-0.252,-0.13,-0.518
GCGTTGC,-0.00918,-0.155,-0.72,-0.399,0.0148,-0.79,0.0921,-0.142,0.00846,-0.103
TAACAAA,-0.039,0.0667,-0.356,-2.37,0.065,-0.611,0.0375,0.0509,0.0152,-0.00221
ATGAACA,0.122,0.0985,-0.13,-1.71,0.0324,-0.526,-0.0633,0.101,0.0715,-0.0112
ATACTTG,0.12,-0.0576,-0.386,-1.38,-0.0455,-0.992,0.13,-0.0071,-0.0223,-0.0654
CAATCCC,0.0215,-0.0497,-2.32,-2.65,-0.096,-0.403,-0.166,-0.826,0.0587,-1.01
TAAGTCG,-0.0745,-0.0299,-0.935,-0.449,-0.0282,-1.02,0.00331,-0.138,-0.107,-0.16
AAGCACG,0.0115,0.13,-0.73,-0.631,0.153,-0.968,0.0509,-0.0531,0.0831,-0.0461
TAAGGTA,0.117,0.0714,0.0879,-0.191,0.0185,1.56,0.0198,0.127,-0.126,-0.0436
GATGACC,0.0127,0.131,0.122,0.794,0.00532,1.06,0.139,0.102,0.0719,0.191
GCTACTC,0.0135,0.042,0.142,-0.28,-0.0773,0.293,0.122,-0.0435,0.0339,0.137
GCGAGTT,0.0283,0.0707,0.112,0.213,-0.0519,1.09,0.0186,-0.121,-0.055,-0.0641
ATATGAG,0.0788,-0.00489,-0.694,-0.0193,0.134,-0.828,0.235,-0.0719,0.0753,0.0464
TAGGCCT,-0.0171,-0.108,-0.243,-1.63,-0.00192,0.434,-2.73,0.0254,0.143,0.0541
TACCACG,-0.0786,-0.118,-0.889,-1.15,-0.123,-1.09,-0.902,-0.209,-0.177,-0.168
TCACAGG,-0.0212,-0.0661,0.413,1.22,-0.0556,1.16,0.0601,0.0925,-0.205,0.123
